Assay results taken from paper PMC4336329 (PLoS ONE, 2015).
The campaign covered roughly 310,000 compounds. About 2,200 (0.71%) showed an effect of 50% or more. Effects have a minus sign here. The list shows a part of the results.

target: human ether-à-go-go-related gene (hERG) potassium channel (human, UniProt Q12809); experiment: primary screen, population patch clamp on CHO cells stably expressing hERG
Sequence (Q12809 whole entry, looked up): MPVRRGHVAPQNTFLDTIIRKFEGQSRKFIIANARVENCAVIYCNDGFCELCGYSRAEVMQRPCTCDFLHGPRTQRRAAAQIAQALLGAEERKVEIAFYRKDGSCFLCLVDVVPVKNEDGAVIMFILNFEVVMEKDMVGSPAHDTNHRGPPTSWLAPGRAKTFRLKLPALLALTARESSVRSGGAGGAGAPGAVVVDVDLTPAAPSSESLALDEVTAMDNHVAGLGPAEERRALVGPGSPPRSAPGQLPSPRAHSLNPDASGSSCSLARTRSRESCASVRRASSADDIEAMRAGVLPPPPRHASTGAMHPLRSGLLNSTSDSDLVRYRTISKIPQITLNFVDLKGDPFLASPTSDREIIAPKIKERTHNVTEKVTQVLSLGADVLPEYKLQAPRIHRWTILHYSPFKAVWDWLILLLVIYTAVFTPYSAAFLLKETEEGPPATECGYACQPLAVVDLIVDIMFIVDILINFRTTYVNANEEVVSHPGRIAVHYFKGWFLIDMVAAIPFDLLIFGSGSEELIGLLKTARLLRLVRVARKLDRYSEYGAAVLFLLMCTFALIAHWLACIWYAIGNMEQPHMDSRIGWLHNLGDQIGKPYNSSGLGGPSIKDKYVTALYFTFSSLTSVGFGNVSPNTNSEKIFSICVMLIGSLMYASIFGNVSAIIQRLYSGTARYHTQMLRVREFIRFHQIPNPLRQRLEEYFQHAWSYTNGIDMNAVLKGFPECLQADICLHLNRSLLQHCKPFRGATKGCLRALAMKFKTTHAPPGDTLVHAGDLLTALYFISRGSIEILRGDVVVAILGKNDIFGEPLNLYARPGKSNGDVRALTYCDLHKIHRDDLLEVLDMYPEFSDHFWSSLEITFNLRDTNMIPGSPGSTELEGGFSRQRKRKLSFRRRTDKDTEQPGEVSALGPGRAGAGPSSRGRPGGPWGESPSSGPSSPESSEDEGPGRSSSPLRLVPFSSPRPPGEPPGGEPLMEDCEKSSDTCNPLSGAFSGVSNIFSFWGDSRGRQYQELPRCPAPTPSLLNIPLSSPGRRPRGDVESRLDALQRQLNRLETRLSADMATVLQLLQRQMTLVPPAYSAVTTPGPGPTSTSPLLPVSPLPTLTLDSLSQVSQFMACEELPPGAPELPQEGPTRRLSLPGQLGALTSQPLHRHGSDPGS

SMILES | hERG current change (%, negative = inhibition) at 1uM [%]
O=C(OCC1CC(c2ccccc2)=NO1)c1ccc(Cl)cc1 (centres unmarked) | 10.6
CCOC(=O)C1=C(CN2CCCCCC2)NC(=O)NC1c1ccc2c(c1)OCO2 (centres unmarked) | -2.57
O=C(COC(=O)C1=COCCO1)Nc1ccc(Oc2ccccc2)cc1 | -2.95
COC(=O)CSc1nc2ccc(C)cc2[nH]1 | 15.8
Cc1ccccc1C(NC(N)=O)c1ccccc1 (centres unmarked) | 0.464
CCN1CCN(c2cc(C)c3cc(NC(=O)c4cnccn4)ccc3n2)CC1 | -1.78
COC(=O)CNC(c1ccccc1)c1cc(Br)ccc1NS(=O)(=O)c1ccc(C)cc1 (centres unmarked) | 5.38
COc1ccc(N/C=C\C(=O)c2ccc(Br)cc2)cc1OC | 5.43
Brc1ccc2[nH]ncc2c1 | 6.72
O=C(C1=C[C@H](c2ccccc2)C[C@H](OCCCCO)O1)N1CCOCC1 | 4.05
CC1=C(C)CC(C(=O)NNC(=O)c2csc3c2CCC(C(C)(C)C)C3)C(C(=O)O)C1 (centres unmarked) | 10.9
COc1ccccc1OCCSc1nnc(CNC(=O)c2ccco2)n1C | 24.3
COc1ccccc1CNC(=O)Cn1nc(C)c([N+](=O)[O-])c1C | 14
CCC(SCC(=O)OC)C(=O)Nc1nnc(C(C)C)s1 (centres unmarked) | 10
CCOC(=O)c1ccc(NC(=S)NCc2ccc(S(N)(=O)=O)cc2)cc1 | 12.1
O=C1CN(C(=O)CSc2nnnn2-c2ccc(Cl)cc2)c2ccccc2N1 | -2.98
COc1cc(C)c(C(=O)Oc2cc(C)c(C(=O)O)c(O)c2C)c(O)c1C(=O)O | 14
CCOCCn1c(SCc2cccc(C)c2)nc2c1c(=O)[nH]c(=O)n2C | -4.13
COc1ccc(-n2c(C)cc(C(=O)C[N+]34CCN(CC3)CC4)c2C)cc1.[Cl-] | 9.07
O=C(CNC(=O)c1sc2ccccc2c1Cl)NCc1cccnc1 | 15
CCOC(=O)c1sc(=S)n(-c2ccccc2Cl)c1SC | -9.44
CC(C)CN(CC(C)C)S(=O)(=O)N1CCC(C(=O)NCc2ccc3c(c2)OCO3)CC1 | -8.66
CC(C)(Oc1ccc(Cl)cc1)C(=O)NCC1CCCO1 (centres unmarked) | 6.86

SMILES | hERG current change (%, negative = inhibition) at 1uM [%]
Cc1ccc(Cn2cccc2/C=C2/C(=N)N3C=CSC3=NC2=O)cc1 | 8.49
CCC(=O)/C=C1\Sc2ccc(OC)cc2N1CC | 3.49
CCc1cccc2c(C(=O)CN3C(=O)C(=O)N(C4CCCC4)C3=O)c[nH]c12 | 5.44
O=Cc1ccc(Cl)c(Cl)c1 | 6.17
Cc1ccccc1NC(=S)N(C)C1(c2ccccc2Cl)CCCCC1=O (centres unmarked) | 2.84
CSc1ccccc1OCc1cc(C(=O)N(C)Cc2cnccn2)no1 | 12.1
O=C(CSc1ncccc1-c1nc2ccccc2[nH]1)N1CCCCC1 | 5.43
CSc1ccc(/C=C(/Sc2nnc(-c3ccccc3)o2)C(=O)O)cc1 | 15.5
COc1cc(/C=C2\SC(=Nc3ccc(F)cc3)N(c3ccc(F)cc3)C2=O)ccc1OCC(=O)O | 11.5
O=C(Nc1nnc(Cc2ccc(Cl)cc2)s1)c1cccnc1 | 1.87
Cc1ccc(CNC(=O)CNS(=O)(=O)c2cccc3nsnc23)cc1 | 3.84
O=C(/C=C/c1cccs1)NC1CC1 | 11.7
O=C(NC(=S)Nc1cc(C(F)(F)F)ccc1Cl)c1ccccc1 | 4.35
Cc1ccc2cc(CCNS(=O)(=O)c3ccc(F)cc3)c(=O)[nH]c2c1C | 13
COc1ccccc1C(C)NCC(=O)NC(=O)NCc1ccco1 (centres unmarked) | 7.87
COCCNCCCOc1ccc(Cl)cc1Br.O=C(O)C(=O)O | 3.08
CCCCNC(=O)CC1N=C2c3ccccc3N=C(SCC(=O)Nc3cccc(C)c3)N2C1=O (centres unmarked) | 7.91
Cc1cc(Cl)ccc1NC(=O)CN1C(=O)C(=O)N(C2CCCC2)C1=O | 3.74
COc1ccc(O)c(C(=O)c2cnn(-c3ccccn3)c2)c1 | -2.68
O=C(Cc1n[nH]c(=O)c2ccccc12)NC(c1ccccc1)c1ccccc1 | 4.69
CCOC(=O)c1c(NC(=O)CNCC(O)CO)sc(C)c1C (centres unmarked) | -3.1
Cc1ccc(C)c(NC(=O)c2cc3c([nH]c4ccccc43)c(C)n2)c1 | 14.7
CCOC(=O)c1cc(S(=O)(=O)N2CCN(Cc3ccccc3)CC2)cn1C | 7.46

SMILES | hERG current change (%, negative = inhibition) at 1uM [%]
CC1(C)C[C@@H]2C[C@@](C)(CN2C(=O)c2ccccc2)C1 | 11.5
C=CCc1cc(C)ccc1OCCCC(C(=O)OCC)C(=O)OCC | 8.9
O=C(CSc1c[nH]c2ccccc12)NCC1CCCO1 (centres unmarked) | 16
CC(=O)N/C(=C\c1ccc(F)cc1)C(=O)OC(C)C | 9.76
Cc1cccc(OCC(=O)OCC(=O)NCC2CCCO2)c1C (centres unmarked) | 12.7
CC(C)(C)OC(=O)N[C@@H](COCc1ccccc1)C(=O)N[C@@H](CO)[C@H](O)[C@@H]1C[C@@H]1C(=O)NC1CC1 | 11.9
O=C(/C=C/c1ccc(F)cc1)c1ccccc1Br | 1.99
COC(=O)c1ccc(CO/N=C/c2ccc(OC)cc2)o1 | 7.66
COC(C[C@@H](O)C[C@H](O)[C@H](C)OCc1ccccc1)OC | 15.6
C=CCOC(=O)C1=C[C@@H](c2coc3ccccc3c2=O)C[C@@H](OCc2ccc(CO)cc2)O1 | 5.04
COc1cccc2c1C(=O)O/C2=C/c1ccc2c(c1)OCO2 | 5.37
CN1C(=O)CSc2ccc(NC(=O)N3CCc4ccccc43)cc21 | 6.64
COc1ccc(/C=N/NC(=O)CC(=O)NCc2cccnc2)cc1[N+](=O)[O-] | -2.1
CCOC(=O)N1CCN(C(=O)c2nn(C)c3c2CSc2ccccc2-3)CC1 | -10.6
CC(C)(C)Nc1nc(Cl)nc(N(C#N)CN2C(=O)c3ccccc3S2(=O)=O)n1 | 16.1
CC1CCN(C(=O)COc2ccc(Nc3ccccc3)cc2)CC1 | 13.7
CC(C)N(C(=O)CSc1nnc(NC2CC2)s1)c1ccccc1 | -1.07
O=C(NC(Cc1cnc[nH]1)C(=O)O)c1ccccc1 (centres unmarked) | 7.49
CCNc1nc(N)nc(Oc2ccc(OCCOc3ccc(Cl)cc3Cl)nn2)n1 | 5.99
Cc1ccc(C(C)C)c(OCc2nnc3n2CCCCC3)c1 | -0.465
CCOc1ccc(N(C(=O)CNC(=O)c2ccco2)C(C(=O)NC2CCCC2)c2cccnc2)cc1 (centres unmarked) | 16.7
COc1ccc(CCn2c(-c3ccccc3)nc3c(c(=O)c4ccccc4n3C)c2=O)cc1 | 11.3
O=C1C(c2ccnc3ccccc23)=C(O)c2ccccc21 | 11.6

SMILES | hERG current change (%, negative = inhibition) at 1uM [%]
Cc1ccc(Cl)c(OCC(=O)N2CCc3ccccc3C2)c1 | 15.5
CCCNC(=O)c1ccc2c(=O)c(O)c(-c3ccc(F)cc3)[nH]c2c1 | 6.08
COc1ccc(N(C(=O)CNC(=O)c2cccs2)C(C(=O)NCC2CCCO2)c2ccccc2)c(OC)c1 (centres unmarked) | 2.9
CCOc1cc(C2C3=C(CCCC3=O)Nc3nc(C(=O)OC)nn32)ccc1OC (centres unmarked) | 11.8
N#C/C(=C/c1ccc(N2CCCCC2)o1)C(=O)NCCc1c[nH]c2ccccc12 | 6.88
N#Cc1cccc(Oc2ccc(-c3cnc4ccccc4n3)cc2)c1C#N | 4.24
Cc1cc(C)cc(NC(=O)c2ccc(CN3CCc4ccccc4C3)cc2)c1 | 0.822
O=c1c2ccccc2c(-c2ccc(Br)cc2)nn1Cc1ccccc1 | 13.5
CCOc1ccc(C2CC(c3ccccc3C)n3nc(N)nc3N2)cc1 (centres unmarked) | 8.43
CCc1ccc(N2CC(C(=O)Nc3cccnc3)CC2=O)cc1 (centres unmarked) | 4.07
CSc1ncc(CNc2cc([N+](=O)[O-])ccc2C)c(N)n1 | 17.3
Cc1sc2nc(CN3CCCCC3)nc(N3CCN(C(=O)c4ccco4)CC3)c2c1C | -45.2
CCOc1ccc(C(=O)N(c2ccccn2)C2CCCCC2)cc1 | 2.99
CCOc1ccccc1-c1cc(C(=O)N/N=C/c2cccnc2)c2ccccc2n1 | 8.18
CCOc1ccc(N(CC(=O)Nc2cccnc2)S(=O)(=O)c2ccc(C)cc2)cc1 | 4.55
COc1cc2c(cc1OC)N1C(=O)CC(OCC(=O)O)C3C4CC5(CCN5C(=O)C4=O)C2C31 (centres unmarked) | 20.8
Cc1ccc(/C(O)=C/c2nc3ccccc3oc2=O)cc1 | 12.7
O=C(O)c1ccc2nc(-c3ccccc3)c(-c3ccccc3)nc2c1 | 5.64
CC(C)(C)C(=O)Nc1ccc(-c2cn3cccnc3n2)cc1 | -0.16
CCOC(=O)C1CCN(C(=O)c2ccc(NC(=O)C3CCCO3)cc2)CC1 (centres unmarked) | -18.2
